2 molecules from patent US20260109747A1 (ASCENDIS PHARMA ONCOLOGY DIVISION A S, published 2026) can be followed below.

Assay [1] addresses T1, cynomolgus monkey IL-2Rβ/γ (cynomolgus monkey).
T1 chain 1: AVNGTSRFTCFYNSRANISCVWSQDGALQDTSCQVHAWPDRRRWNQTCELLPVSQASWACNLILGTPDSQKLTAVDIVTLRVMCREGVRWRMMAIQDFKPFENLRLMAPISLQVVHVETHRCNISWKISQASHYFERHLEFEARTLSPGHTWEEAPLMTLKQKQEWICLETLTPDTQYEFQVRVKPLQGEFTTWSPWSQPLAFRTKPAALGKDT
T1 chain 2: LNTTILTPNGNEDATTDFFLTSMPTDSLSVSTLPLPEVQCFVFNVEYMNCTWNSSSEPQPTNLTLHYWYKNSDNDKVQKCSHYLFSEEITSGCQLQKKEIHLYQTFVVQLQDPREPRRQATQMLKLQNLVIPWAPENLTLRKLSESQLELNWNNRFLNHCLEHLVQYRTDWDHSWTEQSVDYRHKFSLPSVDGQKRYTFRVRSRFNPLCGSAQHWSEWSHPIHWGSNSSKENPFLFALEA
The assay can be described thus: cell-based or functional assay.

Assay [2] has as its target T1, cynomolgus monkey IL-2Rβ/γ. Kind of assay: cell-based or functional assay.
Assay [3] has as its target T2, human IL-2Rα-Fc (human, UniProt P01589 22-213, limits assumed).
T2 construct: Coated on the Biacore sensor chip; also called CD25; not shown: Fc part
T2 sequence (looked up): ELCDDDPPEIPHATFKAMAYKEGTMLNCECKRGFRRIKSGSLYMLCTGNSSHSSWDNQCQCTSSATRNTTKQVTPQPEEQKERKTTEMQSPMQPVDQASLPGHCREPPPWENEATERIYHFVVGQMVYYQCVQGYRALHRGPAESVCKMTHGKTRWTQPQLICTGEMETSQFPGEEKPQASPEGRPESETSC
Kind of assay: SPR (Biacore), analyte injected onto human IL-2Rα-Fc coated sensor chip. (In general: SPR reads the build-up and loss of mass on a sensor chip optically.)

In assay [4] the target is T3, human IL-2Rβ-Fc (human, UniProt P14784 27-239, limits assumed).
T3 construct: Coated on the Biacore sensor chip; also called CD122; not shown: Fc part
T3 sequence (looked up): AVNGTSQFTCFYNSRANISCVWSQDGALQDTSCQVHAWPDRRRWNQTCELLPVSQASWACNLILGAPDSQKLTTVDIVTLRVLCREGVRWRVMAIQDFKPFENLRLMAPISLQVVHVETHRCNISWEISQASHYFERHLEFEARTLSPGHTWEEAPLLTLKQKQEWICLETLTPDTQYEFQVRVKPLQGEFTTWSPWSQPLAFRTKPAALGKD
The assay can be described thus: SPR (Biacore), analyte injected onto human IL-2Rβ-Fc coated sensor chip.

Assay [5] concerns the target T4, human IL-2Rβ/γ (human, UniProt P14784 27-551; P31785 23-369).
T4 sequence (looked up) 1: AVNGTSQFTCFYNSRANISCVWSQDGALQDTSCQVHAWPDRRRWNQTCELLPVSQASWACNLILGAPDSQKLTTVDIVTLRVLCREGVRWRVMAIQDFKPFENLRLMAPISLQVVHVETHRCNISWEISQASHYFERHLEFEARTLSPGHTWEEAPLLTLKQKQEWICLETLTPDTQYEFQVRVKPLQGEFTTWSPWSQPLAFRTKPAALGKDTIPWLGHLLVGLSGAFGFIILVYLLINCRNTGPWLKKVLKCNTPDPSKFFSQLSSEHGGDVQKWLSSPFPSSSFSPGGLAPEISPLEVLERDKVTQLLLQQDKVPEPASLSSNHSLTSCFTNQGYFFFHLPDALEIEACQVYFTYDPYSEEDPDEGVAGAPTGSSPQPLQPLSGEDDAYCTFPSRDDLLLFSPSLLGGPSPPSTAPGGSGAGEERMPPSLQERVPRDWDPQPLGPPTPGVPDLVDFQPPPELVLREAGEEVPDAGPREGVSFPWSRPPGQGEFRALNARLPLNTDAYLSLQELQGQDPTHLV
T4 sequence (looked up) 2: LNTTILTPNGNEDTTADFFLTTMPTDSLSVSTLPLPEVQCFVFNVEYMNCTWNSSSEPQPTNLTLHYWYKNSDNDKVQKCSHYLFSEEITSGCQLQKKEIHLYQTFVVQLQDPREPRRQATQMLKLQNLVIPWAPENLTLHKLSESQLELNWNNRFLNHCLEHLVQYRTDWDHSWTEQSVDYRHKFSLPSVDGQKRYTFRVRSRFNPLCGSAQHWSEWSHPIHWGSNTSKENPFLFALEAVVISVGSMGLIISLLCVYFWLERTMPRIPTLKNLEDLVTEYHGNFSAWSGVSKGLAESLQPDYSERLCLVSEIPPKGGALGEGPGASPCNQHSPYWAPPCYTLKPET
The assay can be described thus: cell-based or functional assay.

B1: his-tagged mammalian expressed control human IL-2, compound 13 (ligand)
chain: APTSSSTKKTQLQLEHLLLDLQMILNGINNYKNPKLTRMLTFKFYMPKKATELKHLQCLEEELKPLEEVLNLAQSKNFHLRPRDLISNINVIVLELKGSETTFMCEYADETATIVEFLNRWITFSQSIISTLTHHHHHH
Take B1: in assay [1], the “pSTAT5 EC50, CD8, cynomolgus monkey whole blood” value was found to be 45.1 ng/mL and the “pSTAT5 EC50, NK, cynomolgus monkey whole blood” value is 10.5 ng/mL. Also, in assay [2], the “Fold Potency Loss vs Human (pSTAT5), CD8, cynomolgus monkey” value is 1.76 fold and the “Fold Potency Loss vs Human (pSTAT5), NK, cynomolgus monkey” value turned out to be 1.75 fold.

B2: unbiased control recombinant human IL-2, compound 12 (ligand)
chain: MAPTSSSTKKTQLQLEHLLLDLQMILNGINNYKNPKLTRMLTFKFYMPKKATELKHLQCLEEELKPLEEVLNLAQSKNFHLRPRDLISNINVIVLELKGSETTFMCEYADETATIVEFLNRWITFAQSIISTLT
As a reminder, the Kd is the free concentration of one partner at which half of the binding sites on the other are occupied at equilibrium, for simple one-to-one binding. Consider B2, for which the Kd in assay [3] worked out at 9.57 nM; in assay [4], 450 nM. The “pSTAT5 EC50, HH cells” value in assay [5] was 233 ng/ml.
